The RNAGym collection of RNA variant scans (doi:10.1073/pnas.2313332121)
This sample is rich in variants without activity.

B1: TPR 5TU (parent)
chain: GGAUCUUCUCGAUCUAACAAAAAAGACAAAUCUGCCACAAAGCUUGAGAGCAUCUUCGGAUGCAGAGGCGGCAGCCUUCGGUGGCGCGAUAGCGCCAACGUUCUCAACUAUGACACGCAAAACGCGUGCUCCGUUGAAUGGAGUUUAUCAUG

Variants of: B1
Assay: polymerase ribozyme fitness, log enrichment relative to wild type (log ratio); higher = more active; in vitro selection for triplet polymerase activity
Procedure, shortened: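 Fitness measures genotype enrichment against wild-type enrichment on a logarithmic scale, with inverse-variance-weighted averaging of replicates. The logarithm is base 2, and genotypes were kept only with ≥10 input reads and ≥1 read per output in Illumina sequencing. The sequenced libraries came from one triplicate in vitro selection round, including frozen incubation at −7 °C, of PCR-built, transcribed mutant libraries of each subunit of a heterodimeric triplet polymerase ribozyme.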

Variant | polymerase ribozyme fitness (log ratio)
C10U A64U G65A G71A G74U G84A C93G | ≤ -4.2
G11U C54U U77G G92U U145A A147U | ≤ -4.2
C10U C35G G58A A91U A119C U139A G143U U148G | ≤ -4.2
G11C U53A A91G C95U A97U U130G | ≤ -4.2
A12G A29C C54U G59A C75A G83U C85G U90C A91U A142C | ≤ -4.2
C10U A52C C87U G88A A122U C123G | ≤ -4.2
G11U A40U G42C G84C G100U A107U U134G | ≤ -4.2
A12C C63A U139C A150G | ≤ -4.2
A12G A23U C35U C76A C93U A97U C116A | -3.12
A12G U31G C118A A120G G141C | -2.6
G11A A17G C43U G94U A122G G141U | ≤ -4.2
C10U U13C C75G C93A A113U A142G | ≤ -4.2
G11A U134A | -3.6
A12U A19C U44G U148C | ≤ -4.2
G11U A40U U55G C95U C105G C116G | ≤ -4.2
A12C G68A U77C G124A | ≤ -4.2
A12C A26U U31C C38U G71A C125U G140U | ≤ -4.2
C10U C38U G80A G94C C125A G143A | ≤ -4.2
G11A A21G C87A G92A A121C G136A U148C | ≤ -4.2
A12C A52G | -0.179
A12C A40G C54A A115G U139C U144A | ≤ -4.2
G11A A28C C69G A91U C95G | ≤ -4.2
G11C C96G G100C U101G A110C A138U | ≤ -4.2
G11A G59A U77G C79U A89C G126A | ≤ -4.2

Variant | polymerase ribozyme fitness (log ratio)
A12C C72G G88C C99A G124C U144A | ≤ -4.2
A12G A24U A49U C51A A66G C95U C105A | ≤ -4.2
G11A A37C U56G G83A U145G | -3.73
A12G C57G G59A C96U U127G | -3.86
G11C C36U C57A G100A | ≤ -4.2
A12G C57U C87U C103G | -2.19
A12C A28C A73G G86U A107G C149A | ≤ -4.2
A12C C85U G128A C132U | ≤ -4.2
G11C G25C A28G C36G C75U C96U A115U A122U | -3.98
A12G U13G C38A A41U C95A U102C A137G | ≤ -4.2
A12G U56G C85G | -2.2
A12C C87G A137U A138C | ≤ -4.2
G11A C14G A73U G84U A110C C118U | ≤ -4.2
A12C C32A G71C C76G U78C C108U U134A A137G A142C G143A | ≤ -4.2
G11C A115C | -2.86
G11A C14G A30U U44A U45A G92U | ≤ -4.2
C10U G46A G67U C79G U102G C105A U127A | ≤ -4.2
A12C A30G | -3.77
A12C G86C A106U A115U U144A | ≤ -4.2
C10U C93A | -3.86
G11C C93U A137C | ≤ -4.2
G11A U53G C63U G88C G117A | ≤ -4.2
A12C A52C U56A U78A U109G A150G | ≤ -4.2
G11U A23U C57U G86A | ≤ -4.2

Variant | polymerase ribozyme fitness (log ratio)
G11C A28G C36A G74C U145A | ≤ -4.2
A12C C27G A37G A40U U55G U148C | ≤ -4.2
G11C A37U U55A A60C G68C G80A G92U G94C U148A | ≤ -4.2
A12G A26G C57U C87A A91U A122C C125G | ≤ -4.2
A12G A22G A39U A47U G92U A97G U101G | ≤ -4.2
A12G A16U G50C G94A A119U G140U | ≤ -4.2
G11U C14U C72U G143A | ≤ -4.2
C10U U45A G88C U109G | ≤ -4.2
A12C A17C G42C G58A C79G G88C C99U U127G C132A U134G A150C | ≤ -4.2
G11U A17G C57U C63U G81A U82G | -1.64
G11A C54U U55A G74A A89G G92C C105G G112A U144G | ≤ -4.2
A12G C38U C76A G84A G94A U135G G141A U144C | ≤ -4.2
G11C C75G U77G C85U U90C | ≤ -4.2
A12G G48C U56A G70A G83U | ≤ -4.2
C10U U15C A29U C95U | ≤ -4.2
G11C C35G C75G A91G C118U | ≤ -4.2
A12C U45A C76A A91U U102C C131G A137G | ≤ -4.2
G11A C38A A40G | -4.14
A12G A23C A47C A60G C93U | ≤ -4.2
G11C U53A G58C A73U C95A | ≤ -4.2
G11C A17C A52C C85U A115G C125U C132U | ≤ -4.2
A12G A41U C54A G88U C96U U134C | ≤ -4.2
A12G C57G G83U A115G | -2.09
A12C U45A G83C U139C A150C G152U | ≤ -4.2

Variant | polymerase ribozyme fitness (log ratio)
G11A A37U C79U G83A A106U | ≤ -4.2
G11C C36U U78C C85G A120C C123A G124A U151C | ≤ -4.2
G11C G62A C87G | ≤ -4.2
C10U C27U U102G C129A A137U | ≤ -4.2
A12C A66G A91U | ≤ -4.2
G11A G59A C75A G84U G94A A98C C114U C116A | ≤ -4.2
A12G G74U G83A C85G A138G | ≤ -4.2
C10U C32U G92A G94A C149A | ≤ -4.2
G11U G68U A120U C125U | ≤ -4.2
G11U A26G A30G A73U C99U A137C G141C | ≤ -4.2
A12G C85U C118G C125A | -0.473
G11U U31C U44G G48C G83U G86U A91U A115C C125U | ≤ -4.2
A12C A64G C85A G100C | ≤ -4.2
A12G A22C U53A G88C C108A A110U | ≤ -4.2
C10U U77C C85G A89G A120C | ≤ -4.2
G11U C27U C32U C36U G48U C54G A91U G100U | ≤ -4.2
G11A G50U C72U C96U U104C C125G G141A | ≤ -4.2
A12G A19C G86C U101G A113G G124C U135A G141A | ≤ -4.2
A12C A16U U61A C125A | -3.45
G11C C93U G136U | ≤ -4.2
G11C A20U G86C C99G G136C U145G A147C | ≤ -4.2
G11A C54U A60C C75G A113U U135A A137G | ≤ -4.2
A12G A29U C85U A115C G117U U134G | ≤ -4.2
C10U G42C C69A | ≤ -4.2

Variant | polymerase ribozyme fitness (log ratio)
G11A A40C A49C G74C C85A C95G G100C A147U | ≤ -4.2
C10U C35U A47C C85A A89C C93U C95U | ≤ -4.2
A12G C14G A17G C75U A91G C105U A106G A121U A137U | ≤ -4.2
G11A C32U G71A A137G A138G | ≤ -4.2
A12C U53C C79A C105A C116U C125U A137U | ≤ -4.2
A12C A19C A122G U146C | -1.62
A12C A21U C75A G88U C96A U102G C105U A120G | ≤ -4.2
A12G U53A U56G C93U U102G | ≤ -4.2
G11U A19C G34A U61A U78G G94A C95U U144C | ≤ -4.2
G11A A49C G86U A137G | ≤ -4.2
A12G A29U A49C A110U | ≤ -4.2
C10U C43U C63U C69U C76A G94U C103A | ≤ -4.2
A12C U13G C18G A21G U101A A110U A120U G136C G140U G152U | ≤ -4.2
A12U A17U A28C C43G C103G | ≤ -4.2
C10U C76G G83C G88U A119C | ≤ -4.2
A12G U53C G68A C85A U101C | ≤ -4.2
A12G A30G | -2.97
C10U G58U C69U U77G C85U U151C | ≤ -4.2
C10U G124C U139G U148C | ≤ -4.2
G11C C18U A22G U44G A60G G68C G84C | ≤ -4.2
A12C U13C C14G A16C C93A U109A G136A A150U | ≤ -4.2
G11U C43A C76U C95U | ≤ -4.2
A12G C87G G88U C96U C105A C108G C116U | ≤ -4.2
A12U A17C G68A C76G U82G U146C | ≤ -4.2

Variant | polymerase ribozyme fitness (log ratio)
A12G U56A A60U G65U A91U C96G A120U | ≤ -4.2
A12G A26G G94C C95A A137G | -4
C10U C35A A60G U78G G94U A107G A121U G140C G143C U146G | ≤ -4.2
C10U G74C G88C A110G | ≤ -4.2
C10U U31G U56A C85G C95U U144A U146C | ≤ -4.2
G11A A24G G83C | ≤ -4.2
A12C C87G G100C | ≤ -4.2
A12G A60G C93U | -0.294
A12C G81A G92C C99U G124C G133U | ≤ -4.2
G11A U15G C54U A60U G81C A107G | ≤ -4.2
A12C A37U A52C U61A A91G | ≤ -4.2
A12G A41C A47C C72A C85U G133A A150U | ≤ -4.2
C10U G50C C51U C54G C87U | ≤ -4.2
A12C C32G C35G G62A G92U C105U C125U A142C | ≤ -4.2
G11U A26U G83A | -4.06
G11C C14G A21G C93A C129A A142U | ≤ -4.2
G11U A12G A40C A73G C87G C96A C118U A138C | ≤ -4.2
A12G U13C G46C C51A U56A U82C G86A C87U A97C G133C G143C U146C | ≤ -4.2
A12C A16U C35U U53A C76G C96G | ≤ -4.2
G11U C36A C96A | ≤ -4.2
G11U G25C G71C C95G C103A C116G | ≤ -4.2
G11A A23U A39U U53G C54U C93U A122U A142G | ≤ -4.2
A12C U31G A37C G42A G92C C123G | ≤ -4.2
C10U C85A | -3.35

Variant | polymerase ribozyme fitness (log ratio)
A12U A17U A21G G42A G46C G88A C95U | ≤ -4.2
G11C A19U A20U A29U G71A C96U C99U A113U C129A | ≤ -4.2
C10U G42A A49G G50C G86U A98U G140C | ≤ -4.2
G11A U104A A119U G136A U144A | -2.19
A12G A29U U44C G50C A91C C93G G94C C116U U144A | ≤ -4.2
C10U C51G U53A U90G | ≤ -4.2
G11A C51G C57A C85U A89G A106U C118A A119G | ≤ -4.2
A12G A41G C85G A106G | -1.5
G11C U55G U109C U145A | ≤ -4.2
C10U C14G A28U C57U A60G G94C U148C | ≤ -4.2
G11U A17C U55A C116A A121U C125U A142U | ≤ -4.2
A12C A19C C75U A89U C93A U102A | ≤ -4.2
C10U U45A U53A C54A C85G U144G | ≤ -4.2
C10U C76A G88U C95G A98G C129A | ≤ -4.2
A12C U15G A29C G50U C85U G92A C95U G143A U144A | ≤ -4.2
G11U A47G U53A | -2.54
G11A U56A A73G G80A C87A | ≤ -4.2
A12C A29U A52G C85A C108G U139C | ≤ -4.2
G11U A23C U53A C96U G152A | ≤ -4.2
G11U G74U G83C G94C | ≤ -4.2
G11A G25C C35G C75G C79U C93G A121U G133U | ≤ -4.2
A12C A17U A24U A52C U53A C75U G83A C96A | ≤ -4.2
G11A A16C A21G C36A U53A G70A A98U A138G A150U | ≤ -4.2
